# Results taken from the supplement of paper PMC8728848.
# The other results are listed elsewhere or left out.
# B1: GNL (Galanthus nivalis) (protein)
# chain: MGHHHHHHHHYGTLENGHWLMVGMSIFSKDRTVELRMQDDGKLAIYYNDHCAWQSTAQQVNNAKGAVMQGDGNFCIYDKNGKATWHTNTAAPSGDSHTFVSVQDDGNLVLYKNNGATPIWSSKSNK
# Experiments:
# Assay in all cases: glycan array binding signal (z-score within array); higher = stronger binding
# Settings in all cases: glycan notation: IUPAC condensed, linker removed
# [1] = biological target: GlcNAc(b1-2)Gal(b1-3)GalNAc
# Outline: (§1)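 Glycan array data came from 3228 arrays in the Consortium for Functional Glycomics database, and only arrays with an available protein sequence were kept. Glycan names were put into IUPAC-condensed notation, and columns mapping to the same glycan were averaged. The binding signal is a within-array Z-score, averaged across arrays of one protein sequence run at different concentrations or buffers and across linkers. A negative Z-score can be read as non-binding.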
# [2] = biological target: GlcNAc(b1-2)Man(a1-3)[GlcNAc(b1-2)Man(a1-6)]Man(b1-4)GlcNAc(b1-4)GlcNAc
# Outline: as §1
# [3] = biological target: GlcNAc(b1-2)Man(a1-3)[GlcNAc(b1-2)Man(a1-6)]Man(b1-4)GlcNAc(b1-4)[Fuc(a1-6)]GlcNAc
# Outline: as §1
# [4] = biological target: GlcNAc(b1-2)Man(a1-3)[GlcNAc(b1-4)][GlcNAc(b1-2)Man(a1-6)]Man(b1-4)GlcNAc(b1-4)GlcNAc
# Outline: as §1
# [5] = biological target: GlcNAc(b1-2)Man(a1-3)[GlcNAc(b1-4)][GlcNAc(b1-2)Man(a1-6)]Man(b1-4)GlcNAc(b1-4)[Fuc(a1-6)]GlcNAc
# Outline: as §1
# [6] = biological target: GlcNAc(b1-2)[GlcNAc(b1-4)]Man(a1-3)[GlcNAc(b1-2)Man(a1-6)]Man(b1-4)GlcNAc(b1-4)GlcNAc
# Outline: as §1
# [7] = biological target: GlcNAc(b1-2)[GlcNAc(b1-4)]Man(a1-3)[GlcNAc(b1-4)][GlcNAc(b1-2)Man(a1-6)]Man(b1-4)GlcNAc(b1-4)GlcNAc
# Outline: as §1
# [8] = biological target: GlcNAc(b1-2)[GlcNAc(b1-4)]Man(a1-3)[GlcNAc(b1-4)][GlcNAc(b1-2)[GlcNAc(b1-6)]Man(a1-6)]Man(b1-4)GlcNAc(b1-4)GlcNAc
# Outline: as §1
# [9] = biological target: GlcNAc(b1-2)[GlcNAc(b1-4)]Man(a1-3)[GlcNAc(b1-4)][GlcNAc(b1-2)[GlcNAc(b1-6)]Man(a1-6)]Man(b1-4)GlcNAc(b1-4)[Fuc(a1-6)]GlcNAc
# Outline: as §1
# [10] = biological target: GlcNAc(b1-2)[GlcNAc(b1-6)]Man(a1-6)[GlcNAc(b1-2)Man(a1-3)]Man(b1-4)GlcNAc(b1-4)GlcNAc
# Outline: as §1
# [11] = biological target: GlcNAc(b1-2)[GlcNAc(b1-6)]Man(a1-6)[GlcNAc(b1-2)Man(a1-3)]Man(b1-4)GlcNAc(b1-4)[Fuc(a1-6)]GlcNAc
# Outline: as §1
# [12] = biological target: GlcNAc(b1-2)[GlcNAc(b1-6)]Man(a1-6)[GlcNAc(b1-4)][GlcNAc(b1-2)Man(a1-3)]Man(b1-4)GlcNAc(b1-4)GlcNAc
# Outline: as §1
# [13] = biological target: GlcNAc(b1-3)Fuc
# Outline: as §1
# [14] = biological target: GlcNAc(b1-3)Gal
# Outline: as §1
# [15] = biological target: GlcNAc(b1-3)Gal(b1-3)GalNAc
# Outline: as §1
# [16] = biological target: GlcNAc(b1-3)Gal(b1-4)Glc
# Outline: as §1
# [17] = biological target: GlcNAc(b1-3)Gal(b1-4)GlcNAc
# Outline: as §1
# [18] = biological target: GlcNAc(b1-3)Gal(b1-4)GlcNAc(b1-2)Man(a1-3)[GlcNAc(b1-3)Gal(b1-4)GlcNAc(b1-2)Man(a1-6)]Man(b1-4)GlcNAc(b1-4)GlcNAc
# Outline: as §1
# [19] = biological target: GlcNAc(b1-3)Gal(b1-4)GlcNAc(b1-2)Man(a1-3)[GlcNAc(b1-3)Gal(b1-4)GlcNAc(b1-2)Man(a1-6)]Man(b1-4)GlcNAc(b1-4)[Fuc(a1-6)]GlcNAc
# Outline: as §1
# [20] = biological target: GlcNAc(b1-3)Gal(b1-4)GlcNAc(b1-2)[GlcNAc(b1-3)Gal(b1-4)GlcNAc(b1-6)]Man(a1-6)[GlcNAc(b1-3)Gal(b1-4)GlcNAc(b1-2)Man(a1-3)]Man(b1-4)GlcNAc(b1-4)GlcNAc
# Outline: as §1
# [21] = biological target: GlcNAc(b1-3)Gal(b1-4)GlcNAc(b1-3)Gal(b1-4)GlcNAc
# Outline: as §1
# [22] = biological target: GlcNAc(b1-3)Gal(b1-4)GlcNAc(b1-3)Gal(b1-4)GlcNAc(b1-2)Man(a1-3)[GlcNAc(b1-3)Gal(b1-4)GlcNAc(b1-3)Gal(b1-4)GlcNAc(b1-2)Man(a1-6)]Man(b1-4)GlcNAc(b1-4)GlcNAc
# Outline: as §1
# [23] = biological target: GlcNAc(b1-3)Gal(b1-4)GlcNAc(b1-3)Gal(b1-4)GlcNAc(b1-2)Man(a1-3)[GlcNAc(b1-3)Gal(b1-4)GlcNAc(b1-3)Gal(b1-4)GlcNAc(b1-2)Man(a1-6)]Man(b1-4)GlcNAc(b1-4)[Fuc(a1-6)]GlcNAc
# Outline: as §1
# [24] = biological target: GlcNAc(b1-3)Gal(b1-4)GlcNAc(b1-3)Gal(b1-4)GlcNAc(b1-2)[GlcNAc(b1-3)Gal(b1-4)GlcNAc(b1-3)Gal(b1-4)GlcNAc(b1-6)]Man(a1-6)[GlcNAc(b1-3)Gal(b1-4)GlcNAc(b1-3)Gal(b1-4)GlcNAc(b1-2)Man(a1-3)]Man(b1-4)GlcNAc(b1-4)[Fuc(a1-6)]GlcNAc
# Outline: as §1
# [25] = biological target: GlcNAc(b1-3)Gal(b1-4)GlcNAc(b1-3)Gal(b1-4)GlcNAc(b1-3)Gal(b1-4)GlcNAc(b1-2)Man(a1-3)[GlcNAc(b1-3)Gal(b1-4)GlcNAc(b1-3)Gal(b1-4)GlcNAc(b1-3)Gal(b1-4)GlcNAc(b1-2)Man(a1-6)]Man(b1-4)GlcNAc(b1-4)GlcNAc
# Outline: as §1
# [26] = biological target: GlcNAc(b1-3)Gal(b1-4)GlcNAc(b1-3)Gal(b1-4)GlcNAc(b1-3)Gal(b1-4)GlcNAc(b1-2)Man(a1-3)[GlcNAc(b1-3)Gal(b1-4)GlcNAc(b1-3)Gal(b1-4)GlcNAc(b1-3)Gal(b1-4)GlcNAc(b1-2)Man(a1-6)]Man(b1-4)GlcNAc(b1-4)[Fuc(a1-6)]GlcNAc
# Outline: as §1
# [27] = biological target: GlcNAc(b1-3)Gal(b1-4)GlcNAc(b1-3)Gal(b1-4)GlcNAc(b1-3)Gal(b1-4)GlcNAc(b1-2)[GlcNAc(b1-3)Gal(b1-4)GlcNAc(b1-3)Gal(b1-4)GlcNAc(b1-3)Gal(b1-4)GlcNAc(b1-6)]Man(a1-6)[GlcNAc(b1-3)Gal(b1-4)GlcNAc(b1-3)Gal(b1-4)GlcNAc(b1-3)Gal(b1-4)GlcNAc(b1-2)Man(a1-3)]Man(b1-4)GlcNAc(b1-4)[Fuc(a1-6)]GlcNAc
# Outline: as §1
# [28] = biological target: GlcNAc(b1-3)Gal(b1-4)GlcNAc(b1-3)Gal(b1-4)GlcNAc(b1-3)Gal(b1-4)GlcNAc(b1-3)Gal(b1-4)GlcNAc(b1-2)Man(a1-3)[GlcNAc(b1-3)Gal(b1-4)GlcNAc(b1-3)Gal(b1-4)GlcNAc(b1-3)Gal(b1-4)GlcNAc(b1-3)Gal(b1-4)GlcNAc(b1-2)Man(a1-6)]Man(b1-4)GlcNAc(b1-4)GlcNAc
# Outline: as §1
# [29] = biological target: GlcNAc(b1-3)Gal(b1-4)GlcNAc(b1-3)Gal(b1-4)GlcNAc(b1-3)Gal(b1-4)GlcNAc(b1-3)Gal(b1-4)GlcNAc(b1-2)Man(a1-3)[GlcNAc(b1-3)Gal(b1-4)GlcNAc(b1-3)Gal(b1-4)GlcNAc(b1-3)Gal(b1-4)GlcNAc(b1-3)Gal(b1-4)GlcNAc(b1-2)Man(a1-6)]Man(b1-4)GlcNAc(b1-4)[Fuc(a1-6)]GlcNAc
# Outline: as §1
# [30] = biological target: GlcNAc(b1-3)Gal(b1-4)GlcNAc(b1-3)Gal(b1-4)GlcNAc(b1-3)Gal(b1-4)GlcNAc(b1-3)Gal(b1-4)GlcNAc(b1-2)[GlcNAc(b1-3)Gal(b1-4)GlcNAc(b1-3)Gal(b1-4)GlcNAc(b1-3)Gal(b1-4)GlcNAc(b1-3)Gal(b1-4)GlcNAc(b1-6)]Man(a1-6)[GlcNAc(b1-3)Gal(b1-4)GlcNAc(b1-3)Gal(b1-4)GlcNAc(b1-3)Gal(b1-4)GlcNAc(b1-3)Gal(b1-4)GlcNAc(b1-2)Man(a1-3)]Man(b1-4)GlcNAc(b1-4)[Fuc(a1-6)]GlcNAc
# Outline: as §1
# [31] = biological target: GlcNAc(b1-3)Gal(b1-4)GlcNAc(b1-3)Gal(b1-4)GlcNAc(b1-3)GalNAc
# Outline: as §1
# [32] = biological target: GlcNAc(b1-3)Gal(b1-4)GlcNAc(b1-3)GalNAc
# Outline: as §1
# [33] = biological target: GlcNAc(b1-3)Gal(b1-4)GlcNAc(b1-3)[GlcNAc(b1-3)Gal(b1-4)GlcNAc(b1-3)]GalNAc
# Outline: as §1
# [34] = biological target: GlcNAc(b1-3)Gal(b1-4)GlcNAc(b1-6)[Gal(b1-3)]GalNAc
# Outline: as §1
# [35] = biological target: GlcNAc(b1-3)Gal(b1-4)GlcNAc(b1-6)[GlcNAc(b1-3)Gal(b1-3)]GalNAc
# Outline: as §1
# [36] = biological target: GlcNAc(b1-3)Gal(b1-4)GlcNAc(b1-6)[GlcNAc(b1-3)]Gal(b1-4)GlcNAc
# Outline: as §1
# [37] = biological target: GlcNAc(b1-3)GalNAc
# Outline: as §1
# [38] = biological target: GlcNAc(b1-3)Man
# Outline: as §1
# [39] = biological target: GlcNAc(b1-3)[GlcNAc(b1-4)][GlcNAc(b1-6)]GlcNAc
# Outline: as §1
# [40] = biological target: GlcNAc(b1-3)[GlcNAc(b1-6)]Gal(b1-4)GlcNAc
# Outline: as §1
# [41] = biological target: GlcNAc(b1-3)[GlcNAc(b1-6)]GalNAc
# Outline: as §1
# [42] = biological target: GlcNAc(b1-4)Gal(b1-4)GlcNAc
# Outline: as §1
# [43] = biological target: GlcNAc(b1-4)GlcNAc
# Outline: as §1
# [44] = biological target: GlcNAc(b1-4)GlcNAc(b1-4)GlcNAc
# Outline: as §1
# [45] = biological target: GlcNAc(b1-4)GlcNAc(b1-4)GlcNAc(b1-4)GlcNAc(b1-4)GlcNAc
# Outline: as §1
binder,measurement,setting,value
B1,glycan array binding signal (z-score),[1],-0.314
same,glycan array binding signal (z-score),[2],8.74
same,glycan array binding signal (z-score),[3],1.13
same,glycan array binding signal (z-score),[4],-0.118
same,glycan array binding signal (z-score),[5],-0.205
same,glycan array binding signal (z-score),[6],0.114
same,glycan array binding signal (z-score),[7],-0.276
same,glycan array binding signal (z-score),[8],-0.284
same,glycan array binding signal (z-score),[9],-0.216
same,glycan array binding signal (z-score),[10],-0.286
same,glycan array binding signal (z-score),[11],-0.176
same,glycan array binding signal (z-score),[12],-0.206
same,glycan array binding signal (z-score),[13],-0.196
same,glycan array binding signal (z-score),[14],-0.239
same,glycan array binding signal (z-score),[15],-0.141
same,glycan array binding signal (z-score),[16],-0.193
same,glycan array binding signal (z-score),[17],-0.226
same,glycan array binding signal (z-score),[18],0.679
same,glycan array binding signal (z-score),[19],1.94
same,glycan array binding signal (z-score),[20],-0.156
same,glycan array binding signal (z-score),[21],-0.173
same,glycan array binding signal (z-score),[22],0.148
same,glycan array binding signal (z-score),[23],0.898
same,glycan array binding signal (z-score),[24],-0.103
same,glycan array binding signal (z-score),[25],0.13
same,glycan array binding signal (z-score),[26],0.37
same,glycan array binding signal (z-score),[27],-0.147
same,glycan array binding signal (z-score),[28],-0.009
same,glycan array binding signal (z-score),[29],0.067
same,glycan array binding signal (z-score),[30],-0.12
same,glycan array binding signal (z-score),[31],-0.245
same,glycan array binding signal (z-score),[32],-0.013
same,glycan array binding signal (z-score),[33],-0.182
same,glycan array binding signal (z-score),[34],-0.216
same,glycan array binding signal (z-score),[35],-0.125
same,glycan array binding signal (z-score),[36],-0.255
same,glycan array binding signal (z-score),[37],-0.174
same,glycan array binding signal (z-score),[38],-0.202
same,glycan array binding signal (z-score),[39],-0.102
same,glycan array binding signal (z-score),[40],-0.188
same,glycan array binding signal (z-score),[41],-0.224
same,glycan array binding signal (z-score),[42],-0.245
same,glycan array binding signal (z-score),[43],-0.202
same,glycan array binding signal (z-score),[44],-0.258
same,glycan array binding signal (z-score),[45],-0.122
